Measurements taken from publication PMC4336329 (PLoS ONE, 2015).
Screen size: about 310,000 compounds; about 14,000 (4.5%) showed an effect of 50% or more. Effects have a minus sign here. Some of the results follow.

Target: human ether-à-go-go-related gene (hERG) potassium channel (human, UniProt Q12809)
Assay: primary screen, population patch clamp on CHO cells stably expressing hERG
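Further: peak tail current of the secondary pulse compared with the same well before compound.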

human ether-à-go-go-related gene (hERG) potassium channel, sequence (Q12809 whole entry, looked up): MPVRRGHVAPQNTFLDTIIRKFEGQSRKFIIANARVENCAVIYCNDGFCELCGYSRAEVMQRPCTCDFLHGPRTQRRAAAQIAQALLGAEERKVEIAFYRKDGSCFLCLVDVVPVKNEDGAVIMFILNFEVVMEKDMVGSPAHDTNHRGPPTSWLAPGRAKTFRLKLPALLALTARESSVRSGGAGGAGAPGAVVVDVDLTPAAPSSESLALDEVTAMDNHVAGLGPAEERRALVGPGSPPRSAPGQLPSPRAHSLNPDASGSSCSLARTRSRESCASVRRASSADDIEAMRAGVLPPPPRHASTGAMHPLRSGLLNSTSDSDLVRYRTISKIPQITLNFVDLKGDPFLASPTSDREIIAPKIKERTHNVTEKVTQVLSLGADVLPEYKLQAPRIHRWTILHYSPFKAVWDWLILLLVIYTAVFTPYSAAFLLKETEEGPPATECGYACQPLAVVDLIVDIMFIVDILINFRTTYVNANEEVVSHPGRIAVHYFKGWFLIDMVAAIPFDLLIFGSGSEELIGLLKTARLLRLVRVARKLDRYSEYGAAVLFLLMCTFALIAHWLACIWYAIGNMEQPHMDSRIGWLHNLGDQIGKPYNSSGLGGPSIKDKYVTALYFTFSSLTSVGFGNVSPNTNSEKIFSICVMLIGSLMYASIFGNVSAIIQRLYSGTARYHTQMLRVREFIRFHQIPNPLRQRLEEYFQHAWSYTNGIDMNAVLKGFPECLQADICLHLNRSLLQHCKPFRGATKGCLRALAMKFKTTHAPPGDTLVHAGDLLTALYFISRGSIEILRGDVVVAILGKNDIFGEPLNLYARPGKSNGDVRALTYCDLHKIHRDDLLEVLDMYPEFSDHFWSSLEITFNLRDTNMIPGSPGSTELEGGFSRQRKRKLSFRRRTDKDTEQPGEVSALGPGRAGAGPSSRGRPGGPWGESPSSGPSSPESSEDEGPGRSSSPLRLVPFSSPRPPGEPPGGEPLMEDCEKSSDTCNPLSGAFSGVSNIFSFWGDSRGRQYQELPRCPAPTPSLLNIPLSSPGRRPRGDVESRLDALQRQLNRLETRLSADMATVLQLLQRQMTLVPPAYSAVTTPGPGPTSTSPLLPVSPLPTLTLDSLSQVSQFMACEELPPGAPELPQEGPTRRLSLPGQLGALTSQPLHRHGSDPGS

SMILES	hERG current change (%, negative = inhibition) at 10uM [%]
Nc1ccc2ccc3cccc[n+]3c2c1.[O-][Cl+3]([O-])([O-])[O-]	7.27
O=C(CSc1nnc(-c2ccncc2)o1)NCc1ccc(Cl)cc1	-46.5
CCc1ccccc1NC(=O)C1CCCN1S(=O)(=O)c1ccc(-c2ccc(=O)[nH]n2)s1 (stereo not shown)	-54.7
COc1cccc(C(=O)N2N=C(c3ccccc3)CC2(O)C(F)(F)F)c1 (stereo not shown)	-26.7
O=C(c1ccccc1)N1CCN(Cc2ccccc2Br)CC1	-2.16
O=c1c(Cc2ccccc2)c(O)c2cccc3c4c(n1c23)CCCC4	7.55
Cc1ccc(S(=O)(=O)CCC(=O)OCC(=O)N(Cc2ccccc2)C(C)C)cc1	-33.1
CCN(C(=O)COC(=O)/C=C/c1ccc(OC(F)F)c(OC)c1)C1CCS(=O)(=O)C1 (stereo not shown)	-13.3
Cc1cccc(C)c1NC(=O)N1C(C(=O)O)CSC1C(=O)O (stereo not shown)	11.9
O=C(O)c1ccc(CN2C(=O)c3ccc(C(=O)O)cc3C2=O)cc1	-2.03
N=c1sccn1CC(=O)Nc1cc(S(=O)(=O)N2CCCCC2)ccc1Cl	-62.5
CCn1c(SCc2ccc(Cl)cc2)nc2nc3c(cc2c1=O)CCCC3	2.76
CC(/C=N/NC(=O)c1cc(-c2ccc(C)o2)[nH]n1)=C\c1ccccc1	1.33
Cc1cccc(Nc2nnc(SCC(=O)Nc3ccc(C(=O)O)cc3)s2)c1	4.2
CCc1nnc(NC(=O)c2ccc(S(=O)(=O)N3CCCC(C)C3)cc2)s1 (stereo not shown)	5.07
CN(C)c1ccc(CNS(=O)(=O)c2csc(C(N)=O)c2)cc1	4.97
CC(=O)c1ccc(NC(=O)Nc2cccnc2)cc1	7.05
CCNc1ccc(S(=O)(=O)N(C)C)cc1NCC(=O)Nc1c(F)cccc1F	-27.9
COc1ccc(OC)c(S(=O)(=O)Nc2cccc3ccc(O)cc23)c1	6
COc1ccc(NC(=O)C(=O)c2cn(CC(=O)N3CCOCC3)c3ccccc23)cc1OC	16.5
CCOC(=O)C(=NC(C)C)NNc1cc(Cl)ccc1Cl	2.25
COc1ccc(Br)cc1CN(C)CC(=O)Nc1cccc(S(N)(=O)=O)c1	-25.6

SMILES	hERG current change (%, negative = inhibition) at 10uM [%]
COc1cccc(C(C(=O)NC2CCCC2)N(C(=O)c2ccco2)c2ccc(C(C)=O)cc2)c1OC (stereo not shown)	-13.3
COc1ccc(C(=S)Nc2ccc(C)cc2)cc1	8.3
C=CC(C)(C)c1c(O)c(CC=C(C)C)c(O)c2c(=O)c3ccc(O)c(O)c3oc12	22.1
C=CCOc1ccc(CNCc2cccnc2)cc1.Cl	7.73
O=C(N/N=C/c1ccccc1O)C1(O)c2ccccc2-c2ccccc21	7.48
CCCNC(=O)C(Cc1ccccc1)NC(=O)c1ccccn1 (stereo not shown)	9.72
CCc1cc(-c2[nH]ncc2-c2ccc([N+](=O)[O-])cc2)c(O)cc1OC	-18
COc1ccc(C2C(C(=O)O)CCC(=O)N2c2ccc(C)cc2)cc1OC (stereo not shown)	-10.6
Cc1ccc(CNC(=O)c2ccc(N3CCC4(CC3)CC(c3ccccc3)=NO4)c([N+](=O)[O-])c2)cc1	-4.67
CCOc1ccc2nc(CN3CCN(Cc4ccccc4OCC)C(CCO)C3)ccc2c1 (stereo not shown)	-56.9
Cc1ccc(C2=NN(CC(=O)NCc3cccnc3)C(=O)CC2)cc1	-4.87
O=C(NCCCN1CCCCCC1)C1CC(=O)N(CCc2ccccc2)C1 (stereo not shown)	11.3
CCC1(CC)C(=O)NC(=O)NC1=NCCc1ccc(O)cc1	-0.161
O/N=C\c1cnc(N2CCN(c3ccccc3)CC2)s1	9.11
COc1ccccc1NC(=O)/C=C1\NC(=O)CS1	5.12
O=C(c1ccccc1)C1CCN(C(=O)c2cccs2)CC1	-8.56
Clc1ccc(-c2nn3c(C4COc5ccccc5O4)nnc3s2)cc1 (stereo not shown)	9.73
COc1ccc2c(c1)C=C([C@@H]1C[C@H]3CN(c4ccccc4)C(=O)[C@]34CCCN14)CO2	-49.2
Nc1cc(OC(=O)c2ccco2)nn1S(=O)(=O)c1ccc(F)cc1	17.4
O=C1CC(C(=O)Nc2ccc(Br)cc2)S/C(=N\N=C\c2ccco2)N1 (stereo not shown)	9.17
CC(NC(=O)/C(=C/c1cccc([N+](=O)[O-])c1)NC(=O)c1ccco1)C(=O)O (stereo not shown)	0.397
COc1cc2c(cc1OC)C(C)N(C(=O)c1cc3c(s1)-c1c(C)cccc1OC3)CC2 (stereo not shown)	2.9

SMILES	hERG current change (%, negative = inhibition) at 10uM [%]
CN1CC=C(/C=C/c2ccc(-c3ccccc3)cc2)CC1.Cl	-50.1
CC(=O)Nc1ccc(NC(=O)C(NS(=O)(=O)c2ccc3c(c2)OCCO3)C(C)C)cc1 (stereo not shown)	3.56
O=c1c2c(-c3ccccc3)csc2ncn1/N=C/c1cccc([N+](=O)[O-])c1O	19.5
C=CCN(c1cccc(C(F)(F)F)c1)S(=O)(=O)c1cccc(C(=O)OCC(=O)Nc2ccccc2)c1	-4.95
Cc1nn(C)cc1C(=O)NNC(=S)Nc1ccccc1	7.56
Cn1nnc(NC(=S)NC(=O)Cc2ccccc2)n1	-3.02
CN(C)c1nc(-c2ccccc2)[n+](C)s1.[O-][Cl+3]([O-])([O-])[O-]	7.3
C[C@]12CC[C@H](OS(=O)(=O)O)CC1=CC[C@@H]1[C@@H]2CC[C@]2(C)C(=O)CC[C@@H]12.O.[Na]	2.13
CCOc1ccc(/C=C(\C)C(=O)c2c(C)cc(C)[nH]c2=O)cc1	5.24
O=C(CSc1ncccc1C(=O)O)c1ccccc1F	14.8
COc1ccccc1OCC(=O)Nc1ccccc1C(=O)Nc1cccc(C(=O)O)c1	16.3
CCC1(CC)Cc2ccccc2-c2nc(CCl)[nH]c(=O)c21	8.48
CCCCn1c(N)c(N(CC)C(=O)CN2C(=O)NC(C)(c3ccccc3)C2=O)c(=O)[nH]c1=O (stereo not shown)	12.6
Cc1cc2ncn(CCOc3ccccc3)c2cc1C	0.668
COc1ccc(-c2[nH]n(-c3ccc([N+](=O)[O-])cc3)c(=O)c2C=NCCN2CCNCC2)cc1	-4.9
CCNc1oc(/C=C/c2ccc(OCC)cc2)nc1C#N	9.38
Cc1cccc(OCC(=O)NNC(=O)c2ccc([N+](=O)[O-])cc2)c1	1.5
CSc1ccccc1OCc1cc(C(=O)N2CCN(C)C(c3ccccc3)C2)no1 (stereo not shown)	-5.98
Cn1c(=O)c2c(nc(-n3ccnc3)n2Cc2ccc([N+](=O)[O-])cc2)n(C)c1=O	-43.7
COc1cc(OC)cc(C(=O)Nc2ccc3c(c2)OCCO3)c1	-5.73
COC(=O)c1cc(C)ccc1OCc1ccc([N+](=O)[O-])cc1	4.13
CCCC(=O)NC(c1ccco1)c1cc(Cl)c2cccnc2c1O (stereo not shown)	17.8

SMILES	hERG current change (%, negative = inhibition) at 10uM [%]
CCOc1ccc(N(CC(=O)Nc2ccccc2OCC)S(=O)(=O)c2c(C)noc2C)cc1	14.3
CCOc1ccc(NS(=O)(=O)c2cc3c4c(c2)CCN4C(=O)CC3)cc1	-20.8
Cc1ccc(C(=O)c2ccccc2C(=O)OCC(=O)NC(C)(C)C)cc1	-0.829
COCCOC(=O)c1c(C)oc2ccc(OC(=O)N(C)C)cc12	9.21
COc1ccc(NC(=O)CC23CC4CC(CC(Br)(C4)C2)C3)c(OC)c1	-14.1
COc1ccc(NC(=O)CCC(=O)c2cccs2)cc1Cl	17.6
O=C(c1cc(COc2ccc(F)cc2F)on1)N1CCN(C2CCCC2)C(=O)C1	-25.8
CCOc1ccc(NC(=O)CN(c2ccc(C)cc2)S(=O)(=O)c2c(C)nn(C)c2C)cc1	4.36
O=C(CN1CCCCC1)Nc1nc(-c2ccccc2)cs1	-35
COc1ccc(C2=NCC(=S)Nc3ccc(Cl)cc32)cc1Cl	2.73
CCN(CC)CCNC(=O)c1ccc(NC(=O)c2cc(-c3ccco3)nc3ccccc23)cc1	-30.2
Cc1nc2ncnn2c(C)c1Cc1ccc(Cl)cc1F	5.1
N#Cc1cnn2c1nc(N1CCCCC1)c1ccccc12	8.49
CC(=O)N1CCN(c2ccc(NCc3ccc(F)cc3)cc2)CC1	5.37
Nc1c(C(=O)NCc2ccccc2)c2nc3ccccc3nc2n1CCCN1CCOCC1	-1.02
O=C(CCNC(=O)c1ccc(Cl)cc1)NCC(c1ccco1)N1CCCCC1 (stereo not shown)	-31
COc1ccc(C2=NN(c3ccccc3)C(c3cccs3)C2)cc1 (stereo not shown)	7.46
Cc1ccc(CNC(=O)c2ccc(N(C)S(=O)(=O)c3ccccc3)cc2)cc1	-11
COC(=O)[C@@H](NC(=O)NCc1ccccc1F)C(C)C	16.1
